Certain results were filed several times, with different values. They are shown here; other results are not. There may be further records. Some protein pairs were linked at several places, one record each.

Chain of TCP1 (P17987 whole entry): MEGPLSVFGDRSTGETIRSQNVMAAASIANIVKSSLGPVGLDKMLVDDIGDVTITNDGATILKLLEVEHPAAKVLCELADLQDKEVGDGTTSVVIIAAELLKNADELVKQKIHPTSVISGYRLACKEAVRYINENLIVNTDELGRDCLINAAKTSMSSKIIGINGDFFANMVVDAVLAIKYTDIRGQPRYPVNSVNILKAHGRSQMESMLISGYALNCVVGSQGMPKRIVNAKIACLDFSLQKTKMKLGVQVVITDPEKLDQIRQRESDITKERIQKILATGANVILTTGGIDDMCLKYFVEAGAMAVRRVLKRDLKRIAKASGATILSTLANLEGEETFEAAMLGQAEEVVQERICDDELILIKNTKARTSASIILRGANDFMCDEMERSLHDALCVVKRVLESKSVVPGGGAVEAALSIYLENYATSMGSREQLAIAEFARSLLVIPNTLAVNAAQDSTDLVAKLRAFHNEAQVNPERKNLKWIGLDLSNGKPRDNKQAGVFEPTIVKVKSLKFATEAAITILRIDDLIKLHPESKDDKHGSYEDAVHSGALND
Chain of CCT3, P49368 (P49368 whole entry): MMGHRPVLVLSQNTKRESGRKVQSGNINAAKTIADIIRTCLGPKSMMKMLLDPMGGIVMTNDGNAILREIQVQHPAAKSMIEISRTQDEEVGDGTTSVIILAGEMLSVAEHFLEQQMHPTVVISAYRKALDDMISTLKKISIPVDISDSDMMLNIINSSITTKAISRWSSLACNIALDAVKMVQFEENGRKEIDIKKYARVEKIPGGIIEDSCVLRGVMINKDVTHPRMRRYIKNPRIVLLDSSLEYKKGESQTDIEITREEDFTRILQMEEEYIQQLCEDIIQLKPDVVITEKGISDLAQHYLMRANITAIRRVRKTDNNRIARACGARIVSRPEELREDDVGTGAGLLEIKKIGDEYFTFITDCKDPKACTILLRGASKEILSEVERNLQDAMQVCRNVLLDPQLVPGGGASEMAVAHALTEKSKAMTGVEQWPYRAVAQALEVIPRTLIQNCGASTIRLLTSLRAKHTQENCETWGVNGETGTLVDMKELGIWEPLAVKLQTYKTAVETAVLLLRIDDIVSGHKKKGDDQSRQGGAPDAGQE
Chain of CCT8, P50990 (P50990 whole entry): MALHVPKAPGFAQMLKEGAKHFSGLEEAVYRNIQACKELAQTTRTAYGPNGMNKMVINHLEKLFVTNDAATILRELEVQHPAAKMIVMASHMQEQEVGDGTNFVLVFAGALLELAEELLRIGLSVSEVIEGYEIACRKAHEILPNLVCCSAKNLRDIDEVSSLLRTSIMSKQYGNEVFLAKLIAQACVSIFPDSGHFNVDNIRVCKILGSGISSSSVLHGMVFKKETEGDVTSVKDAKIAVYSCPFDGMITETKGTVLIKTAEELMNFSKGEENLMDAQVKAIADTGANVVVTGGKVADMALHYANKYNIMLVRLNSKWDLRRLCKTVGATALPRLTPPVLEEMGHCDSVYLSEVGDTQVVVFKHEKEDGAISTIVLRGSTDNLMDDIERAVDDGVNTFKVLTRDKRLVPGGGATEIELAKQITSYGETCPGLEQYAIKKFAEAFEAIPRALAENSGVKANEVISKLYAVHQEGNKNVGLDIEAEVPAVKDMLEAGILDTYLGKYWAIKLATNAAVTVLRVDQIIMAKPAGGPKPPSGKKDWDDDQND
Chain of CCT6A (P40227 whole entry): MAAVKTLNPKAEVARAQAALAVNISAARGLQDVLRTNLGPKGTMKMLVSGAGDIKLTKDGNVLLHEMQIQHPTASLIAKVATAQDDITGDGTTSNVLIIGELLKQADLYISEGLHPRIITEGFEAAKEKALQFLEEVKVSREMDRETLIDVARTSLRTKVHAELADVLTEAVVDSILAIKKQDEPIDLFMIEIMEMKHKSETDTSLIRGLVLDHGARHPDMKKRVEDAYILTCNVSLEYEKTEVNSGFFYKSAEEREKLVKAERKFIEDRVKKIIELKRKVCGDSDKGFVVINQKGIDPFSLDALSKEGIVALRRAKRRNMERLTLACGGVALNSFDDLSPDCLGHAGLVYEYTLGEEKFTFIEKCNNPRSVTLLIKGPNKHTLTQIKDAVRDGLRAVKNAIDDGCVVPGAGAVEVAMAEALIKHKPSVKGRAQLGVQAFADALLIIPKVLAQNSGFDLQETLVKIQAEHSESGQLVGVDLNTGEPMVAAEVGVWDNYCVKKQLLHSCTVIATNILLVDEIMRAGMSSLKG
Chain of CCT2 (P78371 whole entry): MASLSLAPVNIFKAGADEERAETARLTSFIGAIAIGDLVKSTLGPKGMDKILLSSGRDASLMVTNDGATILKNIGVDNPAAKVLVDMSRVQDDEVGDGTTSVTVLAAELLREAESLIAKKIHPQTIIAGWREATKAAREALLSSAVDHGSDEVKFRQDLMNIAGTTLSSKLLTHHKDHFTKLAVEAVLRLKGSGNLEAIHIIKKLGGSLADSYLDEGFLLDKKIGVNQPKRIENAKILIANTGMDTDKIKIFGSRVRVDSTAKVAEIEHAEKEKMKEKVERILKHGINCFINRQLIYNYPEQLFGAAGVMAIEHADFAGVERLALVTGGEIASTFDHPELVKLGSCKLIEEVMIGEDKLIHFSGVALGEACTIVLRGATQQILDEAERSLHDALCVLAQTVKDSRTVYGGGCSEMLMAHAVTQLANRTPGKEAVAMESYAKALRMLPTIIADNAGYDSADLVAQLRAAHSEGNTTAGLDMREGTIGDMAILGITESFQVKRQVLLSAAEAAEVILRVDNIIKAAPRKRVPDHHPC
Chain of PDCD5 (O14737 whole entry): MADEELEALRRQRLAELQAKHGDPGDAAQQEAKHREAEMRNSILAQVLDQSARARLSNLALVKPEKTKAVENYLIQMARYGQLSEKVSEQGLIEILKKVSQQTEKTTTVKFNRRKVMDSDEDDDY
Chain of CCT5 (P48643 whole entry): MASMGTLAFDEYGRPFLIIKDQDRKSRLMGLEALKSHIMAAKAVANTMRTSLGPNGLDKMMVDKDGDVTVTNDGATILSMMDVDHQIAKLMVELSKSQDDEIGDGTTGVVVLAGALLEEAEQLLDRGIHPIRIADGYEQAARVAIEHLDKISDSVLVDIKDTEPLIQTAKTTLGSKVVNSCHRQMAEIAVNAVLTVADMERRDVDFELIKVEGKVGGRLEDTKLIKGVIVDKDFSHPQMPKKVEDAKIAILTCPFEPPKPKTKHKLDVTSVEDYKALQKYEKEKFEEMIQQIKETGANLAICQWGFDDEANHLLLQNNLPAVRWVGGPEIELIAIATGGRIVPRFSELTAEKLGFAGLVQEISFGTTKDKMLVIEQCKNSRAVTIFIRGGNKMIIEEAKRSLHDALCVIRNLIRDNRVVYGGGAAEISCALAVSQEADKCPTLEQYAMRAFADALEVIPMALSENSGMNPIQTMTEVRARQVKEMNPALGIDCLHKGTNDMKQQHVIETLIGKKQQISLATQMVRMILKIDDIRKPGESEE

The target of one test is CCT3 (UniProt P49368). Nature of the test: cross-linking mass spectrometry. As to conditions: DSBSO, in cells or nuclear extract, not told apart.
Regarding TCP1, P17987, the cross-linked residues result was “K73 - K529 and K102 - K21 and K199 - K138 and K494 - K128”.

CCT6A, P40227: the cross-linked residues result is “K10 - K21 and K127 - K163 and K530 - K78 and K530 - K381”.

With PDCD5, O14737, the cross-linked residues entry is “K20 - K248 and K20 - K249”.

The target of the next test is CCT7 (UniProt Q99832). Nature of the test: cross-linking mass spectrometry. As to conditions: DSBSO, in cells or nuclear extract, not told apart.
Chain of UniProt Q99832 (Q99832 whole entry): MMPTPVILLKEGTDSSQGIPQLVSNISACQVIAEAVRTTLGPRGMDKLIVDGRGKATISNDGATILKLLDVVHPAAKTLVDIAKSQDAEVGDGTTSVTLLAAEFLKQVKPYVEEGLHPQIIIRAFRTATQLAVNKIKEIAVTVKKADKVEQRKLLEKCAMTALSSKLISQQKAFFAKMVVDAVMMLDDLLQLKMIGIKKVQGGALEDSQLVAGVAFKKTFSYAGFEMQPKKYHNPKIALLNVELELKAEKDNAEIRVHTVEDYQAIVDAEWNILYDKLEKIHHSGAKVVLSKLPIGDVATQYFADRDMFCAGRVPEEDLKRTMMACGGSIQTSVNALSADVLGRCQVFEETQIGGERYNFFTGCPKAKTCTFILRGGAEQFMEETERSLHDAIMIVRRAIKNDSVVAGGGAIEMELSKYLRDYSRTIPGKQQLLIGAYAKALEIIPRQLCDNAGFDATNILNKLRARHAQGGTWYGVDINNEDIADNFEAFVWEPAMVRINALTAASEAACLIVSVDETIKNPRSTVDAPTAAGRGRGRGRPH
Regarding CCT5, P48643, the cross-linked residues result was “K232 - K250 and K368 - K250”.

For CCT8, P50990, the cross-linked residues entry is “K260 - K250 and K296 - K292”.

For the substance CCT2, P78371, the cross-linked residues entry was “K248 - K250 and K250 - K250”.

In the next test the target is CCT8 (UniProt P50990). Nature of the test: cross-linking mass spectrometry. As to conditions: DSBSO, in cells or nuclear extract, not told apart.
CCT3, P49368: the cross-linked residues result is “K21 - K16 and K21 - K459 and K31 - K20 and K128 - K466”.

For TCP1, P17987, the cross-linked residues entry is “K466 - K466 and K494 - K466”.

With CCT6A, P40227, the cross-linked residues result is “K10 - K16 and K10 - K20 and K199 - K326 and K199 - K400 and K251 - K260 and K251 - K270 and K307 - K238 and K377 - K400 and K530 - K16”.

Values taken from publication PMC12350791.
